# The supplement of paper PMC8728848
# This is one part of the list.
# What was measured:
# Assay in all cases: glycan array binding signal (z-score within array); higher = stronger binding
# Details in all cases: glycan notation: IUPAC condensed, linker removed
# [1] = target: Neu5Ac(a2-3)Gal(b1-3)[Fuc(a1-4)]GlcNAc
# Procedure, shortened: (§1)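 The binding signal is a Z-score computed within each array. Data were drawn from 3228 arrays in the Consortium for Functional Glycomics database, restricted to those with a known protein sequence. Scores were averaged over arrays of the same protein sequence at different concentrations or buffers, and over linkers, and negative values can be taken as non-binding.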
# [2] = target: Neu5Ac(a2-3)Gal(b1-3)[Fuc(a1-4)]GlcNAc(b1-3)Gal(b1-3)[Fuc(a1-4)]GlcNAc
# Procedure, shortened: as §1
# [3] = target: Neu5Ac(a2-3)Gal(b1-3)[Fuc(a1-4)]GlcNAc(b1-3)Gal(b1-4)[Fuc(a1-3)]GlcNAc
# Procedure, shortened: as §1
# [4] = target: Neu5Ac(a2-3)Gal(b1-3)[GlcNAc(b1-6)]GalNAc
# Procedure, shortened: as §1
# [5] = target: Neu5Ac(a2-3)Gal(b1-3)[Neu5Ac(a2-6)]GalNAc
# Procedure, shortened: as §1
# [6] = target: Neu5Ac(a2-3)Gal(b1-3)[Neu5Ac(a2-6)]GlcNAc(b1-3)[Fuc(a1-3)[Gal(b1-4)]GlcNAc(b1-6)]Gal(b1-4)Glc
# Procedure, shortened: as §1
# [7] = target: Neu5Ac(a2-3)Gal(b1-3)]Neu5Ac(a2-3)Gal(b1-4)]GlcNAc
# Procedure, shortened: as §1
# Neu5Ac(a2-3)Gal(b1-4)Glc = target: Neu5Ac(a2-3)Gal(b1-4)Glc
# Procedure, shortened: as §1
# [8] = target: Neu5Ac(a2-3)Gal(b1-4)GlcNAc
# Procedure, shortened: as §1
# [9] = target: Neu5Ac(a2-3)Gal(b1-4)GlcNAc(b1-2)Man
# Procedure, shortened: as §1
# [10] = target: Neu5Ac(a2-3)Gal(b1-4)GlcNAc(b1-2)Man(a1-3)[GlcNAc(b1-4)][Neu5Ac(a2-3)Gal(b1-4)GlcNAc(b1-2)Man(a1-6)]Man(b1-4)GlcNAc(b1-4)GlcNAc
# Procedure, shortened: as §1
# [11] = target: Neu5Ac(a2-3)Gal(b1-4)GlcNAc(b1-2)Man(a1-3)[Neu5Ac(a2-3)Gal(b1-4)GlcNAc(b1-2)Man(a1-6)]Man(b1-4)GlcNAc(b1-4)GlcNAc
# Procedure, shortened: as §1
# [12] = target: Neu5Ac(a2-3)Gal(b1-4)GlcNAc(b1-2)Man(a1-3)[Neu5Ac(a2-3)Gal(b1-4)GlcNAc(b1-2)Man(a1-6)]Man(b1-4)GlcNAc(b1-4)[Fuc(a1-6)]GlcNAc
# Procedure, shortened: as §1
# [13] = target: Neu5Ac(a2-3)Gal(b1-4)GlcNAc(b1-2)Man(a1-3)[Neu5Ac(a2-6)Gal(b1-4)GlcNAc(b1-2)Man(a1-6)]Man(b1-4)GlcNAc(b1-4)GlcNAc
# Procedure, shortened: as §1
# [14] = target: Neu5Ac(a2-3)Gal(b1-4)GlcNAc(b1-2)[Neu5Ac(a2-3)Gal(b1-4)GlcNAc(b1-4)]Man(a1-3)[GlcNAc(b1-4)][Neu5Ac(a2-3)Gal(b1-4)GlcNAc(b1-2)[Neu5Ac(a2-3)Gal(b1-4)GlcNAc(b1-6)]Man(a1-6)]Man(b1-4)GlcNAc(b1-4)GlcNAc
# Procedure, shortened: as §1
# [15] = target: Neu5Ac(a2-3)Gal(b1-4)GlcNAc(b1-2)[Neu5Ac(a2-3)Gal(b1-4)GlcNAc(b1-4)]Man(a1-3)[GlcNAc(b1-4)][Neu5Ac(a2-3)Gal(b1-4)GlcNAc(b1-4)Man(a1-6)]Man(b1-4)GlcNAc(b1-4)GlcNAc
# Procedure, shortened: as §1
# [16] = target: Neu5Ac(a2-3)Gal(b1-4)GlcNAc(b1-2)[Neu5Ac(a2-3)Gal(b1-4)GlcNAc(b1-6)]Man(a1-6)[Neu5Ac(a2-3)Gal(b1-4)GlcNAc(b1-2)Man(a1-3)]Man(b1-4)GlcNAc(b1-4)GlcNAc
# Procedure, shortened: as §1
# [17] = target: Neu5Ac(a2-3)Gal(b1-4)GlcNAc(b1-2)[Neu5Ac(a2-3)Gal(b1-4)GlcNAc(b1-6)]Man(a1-6)[Neu5Ac(a2-3)Gal(b1-4)GlcNAc(b1-2)Man(a1-3)][GlcNAc(b1-4)]Man(b1-4)GlcNAc(b1-4)GlcNAc
# Procedure, shortened: as §1
# [18] = target: Neu5Ac(a2-3)Gal(b1-4)GlcNAc(b1-3)Gal
# Procedure, shortened: as §1
# [19] = target: Neu5Ac(a2-3)Gal(b1-4)GlcNAc(b1-3)Gal(b1-3)GlcNAc
# Procedure, shortened: as §1
# [20] = target: Neu5Ac(a2-3)Gal(b1-4)GlcNAc(b1-3)Gal(b1-4)GlcNAc
# Procedure, shortened: as §1
# [21] = target: Neu5Ac(a2-3)Gal(b1-4)GlcNAc(b1-3)Gal(b1-4)GlcNAc(b1-2)Man(a1-3)[Neu5Ac(a2-3)Gal(b1-4)GlcNAc(b1-3)Gal(b1-4)GlcNAc(b1-2)Man(a1-6)]Man(b1-4)GlcNAc(b1-4)GlcNAc
# Procedure, shortened: as §1
# [22] = target: Neu5Ac(a2-3)Gal(b1-4)GlcNAc(b1-3)Gal(b1-4)GlcNAc(b1-3)Gal(b1-4)GlcNAc
# Procedure, shortened: as §1
# [23] = target: Neu5Ac(a2-3)Gal(b1-4)GlcNAc(b1-3)Gal(b1-4)GlcNAc(b1-3)Gal(b1-4)GlcNAc(b1-2)Man(a1-3)[Neu5Ac(a2-3)Gal(b1-4)GlcNAc(b1-3)Gal(b1-4)GlcNAc(b1-3)Gal(b1-4)GlcNAc(b1-2)Man(a1-6)]GalNAc
# Procedure, shortened: as §1
# [24] = target: Neu5Ac(a2-3)Gal(b1-4)GlcNAc(b1-3)Gal(b1-4)GlcNAc(b1-3)GalNAc
# Procedure, shortened: as §1
# [25] = target: Neu5Ac(a2-3)Gal(b1-4)GlcNAc(b1-3)Gal(b1-4)GlcNAc(b1-3)[Neu5Ac(a2-3)Gal(b1-4)GlcNAc(b1-3)Gal(b1-4)GlcNAc(b1-6)]GalNAc
# Procedure, shortened: as §1
# [26] = target: Neu5Ac(a2-3)Gal(b1-4)GlcNAc(b1-3)Gal(b1-4)GlcNAc(b1-6)[Gal(b1-3)]GalNAc
# Procedure, shortened: as §1
# [27] = target: Neu5Ac(a2-3)Gal(b1-4)GlcNAc(b1-3)Gal(b1-4)[Fuc(a1-3)]GlcNAc
# Procedure, shortened: as §1
# [28] = target: Neu5Ac(a2-3)Gal(b1-4)GlcNAc(b1-3)GalNAc
# Procedure, shortened: as §1
# [29] = target: Neu5Ac(a2-3)Gal(b1-4)GlcNAc(b1-3)[Neu5Ac(a2-3)Gal(b1-4)GlcNAc(b1-6)]GalNAc
# Procedure, shortened: as §1
binder,measurement,setting,value
SBD-G4S3-Fc (protein) MASIPSSASVQLDSYNYDGSTFSGKIYVKNIAYSKKVTVVYADGSDNWNNNGNIIAASFSGPISGSNYEYWTFSASVKGIKEFYIKYEVSGKTYYDNNNSANYQVSTGGGGSGGGGSGGGGSEFVPRDCGCKPCICTVPEVSSVFIFPPKPKDVLTITLTPKVTCVVVDISKDDPEVQFSWFVDDVEVHTAQTQPREEQFNSTFRSVSELPIMHQDWLNGKEFKCRVNSAAFPAPIEKTISKTKGRPKAPQVYTIPPPKEQMAKDKVSLTCMITDFFPEDITVEWQWNGQPAENYKNTQPIMDTDGSYFVYSKLNVQKSNWEAGNTFTCSVLHEGLHNHHTEKSLSHSPGAA,glycan array binding signal (z-score),[1],-0.191
same,glycan array binding signal (z-score),[2],0.232
same,glycan array binding signal (z-score),[3],-0.04
same,glycan array binding signal (z-score),[4],-0.317
same,glycan array binding signal (z-score),[5],0.154
same,glycan array binding signal (z-score),[6],-0.451
same,glycan array binding signal (z-score),[7],-0.134
same,glycan array binding signal (z-score),Neu5Ac(a2-3)Gal(b1-4)Glc,-0.204
same,glycan array binding signal (z-score),[8],-0.154
same,glycan array binding signal (z-score),[9],0.524
same,glycan array binding signal (z-score),[10],-0.442
same,glycan array binding signal (z-score),[11],-0.115
same,glycan array binding signal (z-score),[12],0.186
same,glycan array binding signal (z-score),[13],0.113
same,glycan array binding signal (z-score),[14],-0.281
same,glycan array binding signal (z-score),[15],-0.172
same,glycan array binding signal (z-score),[16],0.242
same,glycan array binding signal (z-score),[17],-0.24
same,glycan array binding signal (z-score),[18],-0.181
same,glycan array binding signal (z-score),[19],-0.229
same,glycan array binding signal (z-score),[20],-0.321
same,glycan array binding signal (z-score),[21],0.222
same,glycan array binding signal (z-score),[22],0.781
same,glycan array binding signal (z-score),[23],0.357
same,glycan array binding signal (z-score),[24],-0.006
same,glycan array binding signal (z-score),[25],-0.047
same,glycan array binding signal (z-score),[26],-0.041
same,glycan array binding signal (z-score),[27],-0.215
same,glycan array binding signal (z-score),[28],-0.285
same,glycan array binding signal (z-score),[29],-0.412
